In the supplement of paper PMC7826260:
Some of the results follow. Each Rep nickase domain was tested in vitro on the same pool of single strands (3 µM enzyme, 1 h, 37 °C); shown is the middle of each 90-letter strand. Values are log2 of uncut reads against the no-enzyme pool; uncut sequences lie near 0, cut ones below; no hit call is given. Because reads are shares of a total, they shift together; values above 0 arise when much of the pool is cut.

Tests used:
Assay in all cases: uncleaved DNA left, log2 of reads against the no-enzyme library (log2 ratio); higher = less cleavage (more negative = more Rep cleavage of the k-mer); sequences stand for … in CTCGTCCG…ACCGGAGA
[1] = test system: T1, Rep nickase domain of Muscovy duck circovirus
T1 sequence (residues 1-111 of Rep, tag left off): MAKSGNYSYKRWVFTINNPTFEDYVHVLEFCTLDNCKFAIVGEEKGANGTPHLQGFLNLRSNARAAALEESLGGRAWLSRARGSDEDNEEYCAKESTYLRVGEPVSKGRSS
Procedure: (§1)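 A pool of 90-nt single-stranded DNAs with seven random bases just before the constant AC of the nick site (name = the seven bases) was cut by 3 µM recombinant His6-SUMO-tagged Rep nickase domain (300 nM DNA, 50 mM HEPES pH 8.0, 50 mM NaCl, 1 mM MnCl2, 1 h, 37 °C, three replicates). Uncut DNA was amplified and sequenced.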

[2] = test system: T2, Rep nickase domain of banana bunchy top virus
T2 sequence (residues 1-94 of Rep, tag left off): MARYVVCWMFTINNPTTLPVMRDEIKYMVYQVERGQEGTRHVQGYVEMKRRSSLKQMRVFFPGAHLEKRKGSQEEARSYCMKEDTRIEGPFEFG
Procedure: as §1

[3] = test system: T3, Rep nickase domain of cabbage leaf curl virus
T3 sequence (residues 1-116 of Rep, tag left off): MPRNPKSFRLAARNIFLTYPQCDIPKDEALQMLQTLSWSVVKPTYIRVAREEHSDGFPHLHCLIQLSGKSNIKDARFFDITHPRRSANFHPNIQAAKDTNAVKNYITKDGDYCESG
Procedure: as §1

[4] = test system: T4, Rep nickase domain of chickpea chlorotic dwarf virus
T4 sequence (residues 1-124 of Rep, tag left off): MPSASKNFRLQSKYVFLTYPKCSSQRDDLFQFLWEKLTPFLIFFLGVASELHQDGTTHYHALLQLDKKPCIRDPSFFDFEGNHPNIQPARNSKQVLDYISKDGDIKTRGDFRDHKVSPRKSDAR
Procedure: as §1

[5] = test system: T5, Rep nickase domain of faba bean necrotic yellows virus
T5 sequence (residues 1-98 of Rep, tag left off): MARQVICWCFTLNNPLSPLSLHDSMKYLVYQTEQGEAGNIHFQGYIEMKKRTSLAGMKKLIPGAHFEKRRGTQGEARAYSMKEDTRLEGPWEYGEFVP
Procedure: as §1

[6] = test system: T6, Rep nickase domain of maize striate mosaic virus
T6 sequence (residues 1-117 of Rep, tag left off): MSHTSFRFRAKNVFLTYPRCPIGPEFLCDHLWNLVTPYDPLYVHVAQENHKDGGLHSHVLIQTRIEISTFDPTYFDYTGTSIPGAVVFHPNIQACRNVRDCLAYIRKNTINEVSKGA
Procedure: as §1

[7] = test system: T7, Rep nickase domain of porcine circovirus 2
T7 sequence (residues 2-116 of Rep, tag left off): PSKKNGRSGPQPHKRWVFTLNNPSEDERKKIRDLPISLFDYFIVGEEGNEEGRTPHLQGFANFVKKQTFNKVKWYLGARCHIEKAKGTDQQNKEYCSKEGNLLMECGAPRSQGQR
Procedure: as §1

[8] = test system: T8, Rep nickase domain of tomato yellow leaf curl virus
T8 sequence (residues 1-136 of Rep, tag left off): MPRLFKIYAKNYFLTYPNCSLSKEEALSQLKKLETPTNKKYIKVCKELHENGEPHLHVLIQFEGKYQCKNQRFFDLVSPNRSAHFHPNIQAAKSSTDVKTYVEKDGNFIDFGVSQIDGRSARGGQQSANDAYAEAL
Procedure: as §1

[9] = test system: T9, Rep nickase domain of wheat dwarf virus
T9 sequence (residues 1-137 of Rep, tag left off): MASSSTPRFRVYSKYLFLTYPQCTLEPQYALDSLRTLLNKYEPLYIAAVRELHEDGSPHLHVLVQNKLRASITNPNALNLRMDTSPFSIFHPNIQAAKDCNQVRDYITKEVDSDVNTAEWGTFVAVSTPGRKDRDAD
Procedure: as §1

Row | Sequence | uncleaved DNA left (log2) [1] | uncleaved DNA left (log2) [2] | uncleaved DNA left (log2) [3] | uncleaved DNA left (log2) [4] | uncleaved DNA left (log2) [5] | uncleaved DNA left (log2) [6] | uncleaved DNA left (log2) [7] | uncleaved DNA left (log2) [8] | uncleaved DNA left (log2) [9]
1 | TTCAGAC | 0.0462 | 0.0193 | 0.334 | 0.374 | -0.0957 | 0.143 | 0.08 | 0.0599 | -0.00519
2 | TCCCTTG | -0.224 | -0.143 | -0.435 | -1.18 | -0.325 | -1.26 | 0.107 | -0.0915 | -0.0912
3 | GTTGGAG | -0.0725 | -0.0753 | -0.103 | 0.00518 | -0.035 | -0.574 | 0.0631 | -0.0104 | -0.0695
4 | TACCCTA | -0.157 | -0.125 | -0.189 | -2.76 | -0.196 | -0.397 | -1.35 | -0.0121 | -0.144
5 | GATTTCG | -0.0784 | 0.0128 | -0.804 | -0.0983 | 0.00914 | -0.886 | 0.0784 | -0.00953 | -0.224
6 | TAGAGCC | -0.0552 | -0.0891 | -0.0272 | 0.143 | -0.0418 | -0.531 | -0.46 | -0.0882 | -0.127
7 | GCAGTAA | -0.0187 | 0.156 | 0.0364 | 0.316 | 0.1 | 0.008 | 0.0633 | 0.0732 | 0.142
8 | ACGCCCA | -0.229 | -0.0511 | -0.229 | -0.782 | -0.18 | -0.477 | -0.115 | -0.0869 | -0.101
9 | TCCAGAG | -0.0738 | -0.00752 | -0.447 | -0.522 | 0.0349 | -1.06 | 0.138 | 0.0334 | -0.111
10 | GAACCAA | -0.0198 | 0.0371 | 0.202 | 0.174 | 0.0247 | 0.642 | -0.0273 | 0.0591 | 0.18
11 | ACTGGAA | -0.0847 | -0.091 | -0.126 | 0.442 | 0.0552 | 0.506 | 0.0781 | -0.103 | -0.0762
12 | GGGAGTA | -0.0983 | -0.0376 | 0.765 | 1.84 | -0.112 | 2.07 | 0.168 | -0.0647 | 0.0114
13 | CGGTCCA | 0.0949 | 0.164 | 0.287 | -0.0266 | 0.102 | 0.32 | -0.115 | 0.193 | 0.238
14 | CGAGCGC | -0.0904 | -0.0178 | -0.112 | 0.332 | -0.069 | 0.273 | 0.000642 | -0.0543 | 0.0786
15 | TAGATAC | -0.0799 | -0.0946 | -0.0922 | -0.571 | -0.137 | -0.697 | -0.221 | -0.0885 | -0.13
16 | CACGCAC | 0.00519 | -0.146 | -0.422 | -0.0845 | -0.0498 | -0.835 | -0.055 | -0.147 | -0.159
17 | TGCTATT | -3.22 | -1.63 | -1.1 | -2.5 | -0.243 | -0.579 | -3.32 | 0.144 | -1.08
18 | CCCTCAA | -0.116 | -0.0645 | -0.0294 | -0.331 | -0.0887 | -0.563 | -0.0223 | -0.181 | -0.0427
19 | GCGAGCA | 0.147 | 0.105 | 0.112 | 0.534 | 0.0839 | 0.127 | -2 | 0.245 | 0.128
20 | ATGCTTT | 0.142 | 0.0351 | -0.181 | -1.89 | 0.0559 | -0.783 | -0.514 | 0.0218 | -0.0184
21 | ACCAGAG | 0.126 | 0.0101 | -0.526 | 0.575 | 0.136 | -0.264 | 0.278 | 0.196 | 0.0261
22 | CTGTGAG | 0.0734 | -0.0992 | -0.673 | -0.253 | 0.0849 | -1.09 | 0.0353 | 0.139 | -0.0659
23 | TAGTGGA | -0.00102 | 0.0175 | 0.0346 | -0.0912 | 0.0112 | -0.204 | -2.58 | 0.0113 | -0.0843
24 | TGCCCCT | -0.164 | -0.101 | -0.0127 | -0.963 | -0.128 | 0.0626 | -0.338 | 0.116 | -0.0798
25 | CGGTTGC | -0.113 | 0.0592 | -0.414 | -0.322 | -0.0468 | -0.684 | 0.0649 | 0.0958 | -0.154
26 | ATTATTC | 0.129 | 0.0714 | -0.00838 | -0.0315 | 0.0551 | -0.879 | 0.0872 | -0.0904 | -0.0263
27 | AACCTTT | -0.088 | -0.0942 | -0.315 | -2.87 | 0.0275 | -0.589 | -3.26 | -0.0224 | -0.0376
28 | TATCCCG | -0.142 | -0.0186 | -0.855 | -0.211 | -0.0426 | -1.08 | -0.341 | -0.0823 | -0.124
29 | GTCCACA | 0.013 | 0.0476 | 0.232 | 0.701 | -0.185 | 1.56 | 0.00367 | -0.0286 | 0.176
30 | ATCGAAT | -0.0471 | 0.00329 | 0.179 | 0.0589 | 0.0594 | 0.285 | 0.0562 | 0.0261 | -0.0294
